Results reported in paper PMC4336329 (PLoS ONE, 2015).
Among all 310,000 compounds or so, about 14,000 (4.5%) showed an effect of 50% or more. Effects have a minus sign here. The list shows a part of the results.

Biological target: human ether-à-go-go-related gene (hERG) potassium channel (human, UniProt Q12809)
Assay: primary screen, population patch clamp on CHO cells stably expressing hERG
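Note: peak tail current of the secondary pulse compared with the same well before compound.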

Chain of human ether-à-go-go-related gene (hERG) potassium channel (Q12809 whole entry, looked up): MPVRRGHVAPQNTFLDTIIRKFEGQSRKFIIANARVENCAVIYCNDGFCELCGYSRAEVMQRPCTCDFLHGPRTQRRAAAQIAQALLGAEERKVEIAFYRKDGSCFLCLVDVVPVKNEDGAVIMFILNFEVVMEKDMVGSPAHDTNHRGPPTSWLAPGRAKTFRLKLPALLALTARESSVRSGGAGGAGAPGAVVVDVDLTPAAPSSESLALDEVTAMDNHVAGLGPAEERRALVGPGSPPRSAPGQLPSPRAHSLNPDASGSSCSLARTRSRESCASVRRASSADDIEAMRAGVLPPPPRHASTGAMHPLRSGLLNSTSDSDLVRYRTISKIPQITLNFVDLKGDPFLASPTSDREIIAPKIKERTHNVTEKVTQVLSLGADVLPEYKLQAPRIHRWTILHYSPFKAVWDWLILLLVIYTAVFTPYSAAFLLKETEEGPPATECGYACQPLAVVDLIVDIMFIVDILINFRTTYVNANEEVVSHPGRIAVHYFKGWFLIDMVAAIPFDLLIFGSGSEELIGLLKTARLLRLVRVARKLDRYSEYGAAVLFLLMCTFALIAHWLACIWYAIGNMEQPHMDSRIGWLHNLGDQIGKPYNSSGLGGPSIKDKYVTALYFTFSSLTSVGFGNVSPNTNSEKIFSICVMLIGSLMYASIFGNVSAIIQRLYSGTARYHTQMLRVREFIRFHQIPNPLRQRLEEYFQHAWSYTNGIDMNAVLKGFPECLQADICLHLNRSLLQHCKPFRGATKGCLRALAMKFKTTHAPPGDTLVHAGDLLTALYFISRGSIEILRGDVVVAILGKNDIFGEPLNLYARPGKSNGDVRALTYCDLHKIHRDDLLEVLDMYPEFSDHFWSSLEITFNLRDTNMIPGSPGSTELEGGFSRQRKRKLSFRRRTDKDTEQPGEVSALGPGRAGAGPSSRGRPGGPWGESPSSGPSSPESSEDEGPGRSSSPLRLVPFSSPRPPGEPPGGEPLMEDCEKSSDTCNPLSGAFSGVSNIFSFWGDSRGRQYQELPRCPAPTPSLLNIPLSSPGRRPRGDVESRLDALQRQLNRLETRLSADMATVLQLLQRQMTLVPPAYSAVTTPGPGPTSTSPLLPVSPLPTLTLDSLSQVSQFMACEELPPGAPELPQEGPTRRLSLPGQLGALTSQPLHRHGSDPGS

Structure (SMILES)	hERG current change (%, negative = inhibition) at 10uM
O=C(CN1CCN(S(=O)(=O)c2ccccc2)CC1)Nc1ccc2c(c1)OCO2	-44.1%
COC(=O)CN(C#N)c1nc(OC)nc(N(C)C)n1	-4.12%
CC(O)C(NC=C1C(=O)OC(C)(C)OC1=O)C(=O)O (stereo not drawn)	21%
NC(=O)Cn1cnc2c(nnn2-c2ccc(F)cc2)c1=O	2.12%
COc1cccc(C(=O)N2CCN(C(=O)C3CCCO3)CC2)c1 (stereo not drawn)	24.1%
COc1ccc(NC(=O)NC(C(F)(F)F)C(F)(F)F)cc1	15.1%
CCn1c(SCC(=O)OC)nc2sc3c(c2c1=O)CCC3	-9.34%
CN1CCN(CCCc2c3c(cc4c2CCC4)CCC3)CC1.Cl	-19.8%
O=C(COc1ccccc1Cl)NC(=S)Nc1ccc(CN2CCOCC2)cc1	2.66%
CN1CCN(/N=C/c2ccc(Br)cc2)CC1.Cl	-12.8%
COc1ccc(/C=N/NC(=O)c2ccncc2)cc1Cn1nc([N+](=O)[O-])c(Br)c1C	-49.4%
CCN(c1ccccc1)S(=O)(=O)c1ccc(F)cc1C	-22.7%
O=C(O)c1ccc(CN(c2ccccn2)S(=O)(=O)c2ccccc2)cc1	10.7%
CCC(=O)Nc1nc(-c2ccc3c(c2)CC(C)N3S(C)(=O)=O)cs1 (stereo not drawn)	2.09%
COc1cc(CN2CCNC(=O)C2CC(=O)NC2CCCC2)cc(OC)c1 (stereo not drawn)	-8.68%
COc1ccc(C(=O)NC(=S)NCc2cccnc2)cc1Cl	-1.7%
CC(C)[C@H](NC(=O)C1CCN(S(=O)(=O)c2ccccc2)CC1)C(=O)NCc1ccccc1	10.2%
Cc1c(C(=O)NC2CCCc3ccccc32)oc2ccc(S(=O)(=O)N3CCCC3)cc12 (stereo not drawn)	12%
CCCCN(Cc1ccccc1)S(=O)(=O)c1c(N)n(C)c(=O)n(C)c1=O	2.35%
O=C(/C=C/c1ccco1)NC(=S)Nc1ccccc1Br	19%
CCOC(=O)c1ccc(NC(=O)c2cn(CCC#N)nc2-c2ccc3c(c2)OCCO3)cc1	-4.59%
CC(OC(=O)/C=C/c1ccc(Br)cc1)C(=O)N1CCOCC1 (stereo not drawn)	-10.8%
CCOc1ccc(/C=C/C(=O)NC2CCCCC2)cc1	-5.16%

Structure (SMILES)	hERG current change (%, negative = inhibition) at 10uM
Cc1cc(C(F)(F)F)n(-c2nc(C(=O)N/N=C/c3ccc(F)cc3)cs2)n1	-14.2%
Cc1ccc(NCCNc2ccc(C)cc2)cc1	-7.18%
CCOc1ccc(-n2cnnn2)cc1S(=O)(=O)N1CCCCC1	-10.1%
CNC(=S)NNC(=O)Cc1ccccc1	-2.98%
CS(=O)(=O)N1N=C(c2ccco2)CC1c1ccccc1 (stereo not drawn)	18.2%
Cc1ccccc1CNC(=O)Cc1ccccc1[N+](=O)[O-]	-4.8%
CCOc1cc(CNc2ccc(Br)cc2)cc(Br)c1OCC(=O)NC(C)(C)C	-1.64%
O=C(CSc1ncnc2c(-c3ccc(Cl)cc3)nsc12)c1ccccc1	5.06%
CCN(C(=O)Cc1cccs1)c1nnc(-c2cc(OC)c(OC)c(OC)c2)s1	3.03%
O=C1COc2ccc(C(=O)COC(=O)C3CC(O)CN3S(=O)(=O)c3ccc(Cl)cc3)cc2N1 (stereo not drawn)	-16.8%
CC(C)CCn1c(=O)c2ccccc2n2c(CN(C)Cc3ccccc3)nnc12	-80.7%
CC(=O)C1=C(O)C(=O)N(c2ccc(S(N)(=O)=O)cc2)C1c1ccccc1F (stereo not drawn)	13.5%
Cc1c(C(=O)N(Cc2ccccc2)Cc2cccs2)cnn1-c1ccc(Cl)cc1	-3.32%
C=CCNC(=S)Nc1ccc2cn[nH]c2c1	-1.08%
CC(C)CCOP(=O)(c1ccc(N(C)C)cc1)C(O)c1ccccc1 (stereo not drawn)	-30.4%
CC1CCc2c(sc3nc(C(C)(C)C)nc(N4CCN(C(=O)CCl)CC4)c23)C1 (stereo not drawn)	6.17%
O=S(=O)(Nc1nc2ccccc2[nH]1)c1ccccc1	-10.1%
O=C(CSc1nnc(CNC(=O)c2ccccc2)o1)NCCc1ccccc1	5.15%
CCC(CO)NCc1sccc1C (stereo not drawn)	22.5%
COc1cc(S(=O)(=O)NCCCn2ccnc2)ccc1Cl	7.94%
O=S(=O)(Nc1ccc(Cc2ccncc2)cc1)c1ccc(Cl)c(Cl)c1	-53.4%
O=C(O)COCC(=O)Nc1ccc(Oc2ncnc3cc(Cl)ccc23)nc1	11.6%
COC(=O)c1cccc(C23CC4(C2)[C@H](CN(Cc2ccc(-c5ccccc5)cc2)[C@@H]4c2ccccc2)C3c2ccc(Cl)nc2)c1 (stereo partly drawn)	-20.9%

Structure (SMILES)	hERG current change (%, negative = inhibition) at 10uM
CCN1CCN(C(c2cccs2)C(C)NS(=O)(=O)c2ccccc2)CC1 (stereo not drawn)	-2.02%
CCSCc1nnc(SCC(=O)Nc2nc(C)cs2)n1C	-1.63%
CN(C(=O)COC(=O)Cn1cnc2c1c(=O)n(C)c(=O)n2C)C1(C#N)CCCCC1	5.2%
CCOc1ccc(C2C(C(=O)OC)=CN(C(C)c3ccccc3)C=C2C(=O)OC)cc1 (stereo not drawn)	2%
Cc1ccc(/C=C2/NC(=O)[C@H](C)NC2=O)cc1	16.6%
O=C1NC2=C(C(=O)CCC2)C(c2ccc3ncccc3c2)N1 (stereo not drawn)	-1.74%
COc1ccc(S(=O)(=O)N2CCN(C(=O)N3CCOCC3)C2C)cc1 (stereo not drawn)	13.6%
CN(C)c1ccc(C(=O)NCc2ccc3c(c2)OCO3)cc1	-1.61%
CCC(=O)N1C(C(=O)NCc2ccc(OC)cc2)CSC1c1ccc(OC)cc1 (stereo not drawn)	-0.295%
CC1CCC2C(C1)OS(=O)(=O)NC2(C)C (stereo not drawn)	15.3%
CC1(C)Cc2c(C#N)c(SCc3nc4ccccc4[nH]3)nc(N3CCOCC3)c2CO1	-31.8%
O=C1CCC(C(=O)Nc2ccccc2N2CCOCC2)=NN1	4.6%
Nc1c(C(=O)NCc2ccco2)nnn1Cc1ccccc1	-13.6%
O=C1CC(C(=O)Nc2ccccc2C(=O)O)C(c2ccccc2)O1 (stereo not drawn)	9.06%
COc1cc(CNCCCN2CCOCC2)cc(Br)c1OCC(=O)N1CCCCC1.Cl	6.68%
Cc1cc(C)c(NC(=O)/C(=C/c2ccccc2)c2ccccc2)c(C)c1	0.402%
CCN(CC)S(=O)(=O)c1ccc(C(=O)Nc2ccc3c(c2)OCO3)cc1	4.68%
Cc1ccc(S(=O)(=O)N(C)c2ccc(OCC(=O)NC3=NCCS3)cc2)cc1	11.3%
Cl.O.O=C1CC(=C2c3ccccc3-c3ccccc32)C(=O)N1CCCCN1CCN(c2ccccc2)CC1	1.05%
Cc1ccc(N2CC(C(=O)NCCc3ccc(S(N)(=O)=O)cc3)CC2=O)cc1 (stereo not drawn)	22.5%
CCn1c(-c2cc(C3CC3)nc3ccccc23)n[nH]c1=S	10.2%
CCCCn1nc(NC(=O)c2cccs2)c2cc3cc(OC)ccc3nc21	-0.306%
Cc1ccsc1C(=O)OCC(=O)c1cc(C)n(CC2CCCO2)c1C (stereo not drawn)	-21.5%

Structure (SMILES)	hERG current change (%, negative = inhibition) at 10uM
COc1ccc(S(=O)(=O)NCc2ccncc2)cc1OC	9.12%
CCC(C)(C)NC(=O)Cc1ccc(F)cc1	16.9%
CCN(CC(=O)NCc1cccs1)C(=O)CN(C)S(=O)(=O)c1ccc(C)cc1	-27.3%
CCCc1cc(=O)[nH]c(SCC(=O)N2CCCC2=O)n1	21.6%
Cn1c(=O)c2c(nc(N3CCOCC3)n2C)n(C)c1=O	-4.44%
COc1ccc(C(CC(=O)N2CCCCC2)c2c(O)cc(OC)cc2OC)cc1 (stereo not drawn)	11.6%
CC1=CC(C)(C)n2c(O)c(N=N)c3cc(C)cc1c32	-0.752%
CCOC(=O)CSc1nnc(NC(=O)CN2CCCCC2)s1	15.2%
Cc1cc(C(=O)OCC(=O)N2CCC(c3ccccc3)=N2)ccc1[N+](=O)[O-]	6.81%
COc1ccc(CCNC(=O)[C@@H]2C[C@H]2c2ccccc2)cc1OC	-7.9%
O=C(Cn1nc2sc3ccccc3n2c(=O)c1=O)c1ccc(Cl)cc1	26.5%
COc1ccc2oc(C(=O)OCC(=O)N3CCN(S(=O)(=O)c4ccc(C)cc4)CC3)c(C)c2c1	14.5%
CC(C)Cc1nnc(NC(=O)CCC(=O)N2CCN(Cc3ccc(F)cc3)CC2)s1	-8.14%
O=C(Cc1ccccc1)NCCc1cn2ccsc2n1	22%
CCOC(=O)Cn1c(=NC(=O)CSC(C)=O)sc2ccccc21	-44.3%
Cn1cccc1C(=O)OCc1ccc(C(C)(C)C)cc1	10.6%
O=C1C=C(c2ccc3ccccc3c2)C[C@@H](c2ccc(Cl)cc2)C1	12.4%
Cn1cc(CCC(=O)N2CCCC(CCC(=O)NCc3ccc(F)c(F)c3)C2)cn1 (stereo not drawn)	-10.8%
O=C(COc1ccccc1)Nc1cccc(-c2nn[nH]n2)c1	7.2%
CCCCOP(=O)(c1ccc(N(C)C)cc1)C(O)c1ccncc1 (stereo not drawn)	-1.72%
CCN(CC)CCNCc1cc(Cl)c(OCC(=O)Nc2ccccc2)c(OC)c1.Cl	-62.5%
